About 2,300 (1%) of roughly 220,000 compounds were called active. The inconclusive results got no clear call from the source; some entries with a clear call stand among them for comparison. Calls follow the shape of the dose curve; as a rule, active = well fitted inhibition curve with a large enough effect; inconclusive = small, poorly fitted or top-dose-only effect, or effect the other way; inactive = no such curve, though single readings can be large or run the other way. Potencies of inconclusive entries are doubtful fits and often do not repeat.
Molecular target: Neuropeptide S receptor (Homo sapiens) (UniProt Q6W5P4)
Assay: qHTS Assay for Antagonists of the Neuropeptide S Receptor: cAMP Signal Transduction; also: nearly all actives have a fitted effect of over 50% in size
Settings: CHO-NPSR cells, cAMP TR-FRET, antagonist mode; activity change, negative = inhibition: at 38.3 µM (top of the series) unless noted
% is scaled to controls: 0 for no effect and ±100 for the full control effect; potency is read from the fitted curve at half-maximal effect; tags tell the direction and shape of the fitted curve.

Chain of UniProt Q6W5P4 (Q6W5P4 whole entry, looked up): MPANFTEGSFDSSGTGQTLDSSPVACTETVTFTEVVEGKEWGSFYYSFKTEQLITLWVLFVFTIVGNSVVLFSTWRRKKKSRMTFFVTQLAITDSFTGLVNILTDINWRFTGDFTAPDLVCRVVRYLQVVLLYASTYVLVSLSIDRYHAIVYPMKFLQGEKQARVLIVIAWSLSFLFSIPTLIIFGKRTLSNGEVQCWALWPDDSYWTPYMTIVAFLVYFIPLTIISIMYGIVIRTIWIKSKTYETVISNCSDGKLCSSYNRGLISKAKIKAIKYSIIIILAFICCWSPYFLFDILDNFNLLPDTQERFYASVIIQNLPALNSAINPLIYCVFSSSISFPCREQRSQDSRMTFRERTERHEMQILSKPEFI

Row | SMILES | Potency | activity change, negative = inhibition
1 | N#Cc1ccccc1Cn1c(=O)n(C2CCCC2)c(=O)c2ccccc21 | inconclusive: 12.6 µM [inhibitor, single point] | –
2 | c1ccc(Nc2nc(-c3ccccn3)cs2)cc1 | inconclusive: 6.31 µM [inhibitor, partial curve, poor fit] | –
3 | Cc1ccccc1Cn1nc(C)c(NC(=O)c2noc3c2CC(C(C)(C)C)CC3)c1C (configuration not stated) | inconclusive: 10 µM [inhibitor, single point] | –
4 | O=c1[nH]c(/C(=N\O)c2ccccc2)no1 | inconclusive: 12.6 µM [inhibitor, single point] | –
5 | CCCCC1(C)NC(=O)N(CC(=O)Nc2ccc(S(=O)(=O)N3CCOCC3)cc2)C1=O (configuration not stated) | – | inactive: -8.8% [at 46.1 µM]
6 | CC(Sc1nc2sc3c(c2c(=O)n1-c1ccccc1)CCCC3)C(=O)O (configuration not stated) | inconclusive: 12.6 µM [inhibitor, single point] | –
7 | COc1ccc(N2CCN(CC(O)COC(C)(C)C)CC2)cc1 (configuration not stated) | – | inactive: 13.5%
8 | CCOC(=O)Nc1oc2ccccc2c(=O)c1CN1CCOCC1 | inconclusive: 10 µM [inhibitor, partial curve] | –
9 | Cc1cc(C)c2c(c1)-c1c(ssc1=S)C(C)(C)N2C(=O)CSc1nncn1C | inconclusive: 7.94 µM [inhibitor, partial curve, poor fit] | –
10 | Cc1ccc(Cn2c(NC(=O)c3ccco3)nc3ccccc32)cc1 | inconclusive: 3.16 µM [inhibitor, single point] | –
11 | COC(=O)c1ccccc1NC(=O)c1ccc(COc2ccccc2)o1 | inconclusive: 12.6 µM [inhibitor, single point] | –
12 | Fc1ccc(C(c2nnnn2C2CCCC2)N2CCN(Cc3ccncc3)CC2)cc1 (configuration not stated) | inconclusive: 15.8 µM [inhibitor, partial curve] | –
13 | CN(C)S(=O)(=O)N(CC(=O)Nc1ccc(F)c(F)c1)c1ccccc1 | – | inactive: -13.2% [at 46.1 µM]
14 | CCc1nc2ccccc2nc1N1CCN(S(=O)(=O)c2ccccc2)CC1 | inconclusive: 10 µM [activator, partial curve] | –
15 | Cc1ccc(S(=O)(=O)Nc2cc(C(F)(F)F)ccc2N2CCOCC2)c(C)c1 | – | inactive: -34.3%
16 | CC1CCN(CC(=O)N2CCCc3c2c(=O)oc2ccc(OCc4ccccc4)cc32)CC1 | inconclusive: 10 µM [inhibitor, partial curve] | –
17 | CCCOc1ccc(Br)cc1CSC(=N)N | – | inconclusive: 33.8% [activator] [at 46.1 µM]
18 | O=c1[nH]nc(-c2ccccc2)c2ccccc12 | inconclusive: 25.1 µM [activator, single point] | –
19 | C#CCNC(=O)C1=C[C@@H](C2CC2)[C@H](CCCO)[C@@H](OCC)O1 | inconclusive: 25.1 µM [activator, single point] | –
20 | CCOCCn1c(CN(Cc2ccccc2)Cc2ccccc2)nc2c1c(=O)[nH]c(=O)n2C | inconclusive: 10 µM [inhibitor, partial curve, poor fit] | –
21 | N=c1n(CCN2CCCCC2)c2ccccc2n1CC(O)c1ccc(Cl)c(Cl)c1 (configuration not stated) | inconclusive: 25.1 µM [inhibitor, single point] | –

Row | SMILES | Potency | activity change, negative = inhibition
22 | COC(=O)c1[nH]c2cc(OC)ccc2c1N | inconclusive: 10 µM [inhibitor, partial curve] | –
23 | CCCC(=O)N1CCN(c2ccc([N+](=O)[O-])c(NC(C)c3ccccc3)c2)CC1 (configuration not stated) | inconclusive: 15.8 µM [inhibitor, partial curve] | –
24 | COc1ccc(N2CCN(C(=O)C(C)(C)Oc3ccc(Cl)cc3)CC2)cc1 | inconclusive: 10 µM [inhibitor, single point] | –
25 | CCc1n[nH]c2c1/C(=N\O)CC(c1ccccc1)C2 (configuration not stated) | – | inactive: -8.28% [at 46.1 µM]
26 | COc1ccc(Nc2nc(N3CCCC3)c3ccccc3n2)cc1 | inconclusive: 25.1 µM [inhibitor, single point] | –
27 | Cc1[nH]c2ccccc2c1/C=N/n1cnnc1 | – | inactive: -16.9% [at 46.1 µM]
28 | COc1ccc(N=Cc2nc(-c3ccccc3)oc2OC(C)=O)cc1 | inconclusive: 25.1 µM [inhibitor, single point] | –
29 | O=S(=O)(c1cccc(S(=O)(=O)N2CCC(Cc3ccccc3)CC2)c1)N1CCOCC1 | inconclusive: 10 µM [inhibitor, single point] | –
30 | CCc1nnc(NC(=O)c2ccc(S(=O)(=O)N3CCc4ccccc4C3)cc2)s1 | – | inactive: -6.74%
31 | Cc1nc2ccc(NC(=O)c3cc([N+](=O)[O-])cc([N+](=O)[O-])c3Cl)cc2s1 | inconclusive: 10 µM [inhibitor, single point] | –
32 | Cc1ccc(C(=O)CN(C(=O)c2ccc(Cl)cc2)N2C(=O)c3ccccc3C2=O)cc1 | inconclusive: 10 µM [inhibitor, partial curve] | –
33 | CCOc1cc(/C=C2\SC(=O)N(CC(=O)Nc3ccccc3F)C2=O)cc([N+](=O)[O-])c1O | inconclusive: 12.6 µM [activator, partial curve] | –
34 | CCc1nnc(NC(=O)CSc2nnc(C)n2-c2ccc(C)cc2)s1 | inconclusive: 0.1 µM [inhibitor, full curve, poor fit] | –
35 | CCOC(=O)C1(CCc2ccccc2)CCN(Cc2c(O)cccc2OC)CC1 | inconclusive: 12.6 µM [activator, partial curve] | –
36 | CCc1ccc(C(C)NC(=O)/C(C#N)=C\c2cn[nH]c2-c2ccccc2)cc1 (configuration not stated) | inconclusive: 12.6 µM [inhibitor, single point] | –
37 | CC1(c2cccc([N+](=O)[O-])c2)CC(C)(C)N(C(=O)c2ccccc2)c2ccccc21 (configuration not stated) | inconclusive: 25.1 µM [inhibitor, single point] | –
38 | Cc1ccccc1C1c2[nH]c3ccccc3c2CCN1CCCn1cccn1 (configuration not stated) | inconclusive: 12.6 µM [activator, partial curve] | –
39 | CC(C)Cn1c(SC(C)C(=O)Nc2ccc3c(c2)OCCO3)nc2ccccc2c1=O (configuration not stated) | inconclusive: 10 µM [inhibitor, partial curve] | –
40 | COc1ccc(Cn2nnnc2CN2CCc3ccccc3C2)cc1 | – | inactive: -8.66% [at 46.1 µM]
41 | CC(=O)OCCCn1c(C)[n+](C)c2cc(Cl)c(Cl)cc21 | – | inactive: -5.82%
42 | COc1cccc(NC(=O)Cn2cnc3sc(C)c(S(=O)(=O)N4CCCCC4)c3c2=O)c1 | inconclusive: 6.31 µM [activator, partial curve] | –

— PubChem BioAssay AID1461 (National Center for Advancing Translational Sciences (NCATS), 2008)
